In patent US20220120736A1 (WHITEHEAD INSTITUTE FOR BIOMEDICAL RESEARCH, published 2022):

Molecular target: T1, MED1-IDR-mCherry (human, UniProt Q15648 948-1574)
T1 construct: Recombinant from E. coli; Lacks the LXXLL motifs; also called mCherry-MED1-IDR
Test: in vitro droplet assay, 10 uM each, 125 mM NaCl, 10% PEG-8000

T1 sequence (Q15648 948-1574 limits assumed): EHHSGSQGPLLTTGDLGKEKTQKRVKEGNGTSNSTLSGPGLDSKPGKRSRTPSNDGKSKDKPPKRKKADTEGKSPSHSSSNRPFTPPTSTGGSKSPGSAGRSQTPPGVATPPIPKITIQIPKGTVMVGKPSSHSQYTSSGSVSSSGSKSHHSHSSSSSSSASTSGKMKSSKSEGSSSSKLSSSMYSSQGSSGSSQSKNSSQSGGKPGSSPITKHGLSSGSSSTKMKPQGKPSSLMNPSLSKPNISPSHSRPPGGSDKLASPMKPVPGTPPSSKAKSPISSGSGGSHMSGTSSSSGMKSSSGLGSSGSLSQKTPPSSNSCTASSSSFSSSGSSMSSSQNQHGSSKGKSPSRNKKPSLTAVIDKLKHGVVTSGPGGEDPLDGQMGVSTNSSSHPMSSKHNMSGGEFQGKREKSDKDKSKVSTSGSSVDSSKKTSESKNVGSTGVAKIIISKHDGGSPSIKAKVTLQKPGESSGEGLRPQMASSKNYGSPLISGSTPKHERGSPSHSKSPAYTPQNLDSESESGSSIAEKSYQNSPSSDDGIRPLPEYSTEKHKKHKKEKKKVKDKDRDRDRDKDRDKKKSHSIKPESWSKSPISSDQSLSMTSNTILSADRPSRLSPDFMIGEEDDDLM

B1: NANOG-GFP (other, not shown: large carriers; small tags and cut ends)
chain: MSVDPACPQSLPCFEASDCKESSPMPVICGPEENYPSLQMSSAEMPHTETVSPLPSSMDLLIQDSPDSSTSPKGKQPTSAEKSVAKKEDKVPVKKQKTRTVFSSTQLCVLNDRFQRQKYLSLQQMQELSNILNLSYKQVKTWFQNQRMKSKRWQKNNWPKNSNGVTQKASAPTYPSLYSSYHQGCLVNPTGNLPMWSNQTWNNSTWSNQTQNIQSWSNHSWNTQTWCTQSWNNQAWNSPFYNCGEESLQSCMQFQPNSPASDLEAALEAAGEGLNVIQQTTRYFSTPQTMDLFLNYSMNMQPEDV
binding result: binds
